The campaign covered roughly 94,000 compounds. About 6,200 (6.6%) were called active. The shares of active, inactive and inconclusive entries below differ from those in the screen. Calls follow the shape of the dose curve; as a rule, active = well fitted inhibition curve with a large enough effect; inconclusive = small, poorly fitted or top-dose-only effect; inactive = flat fitted curve, though single readings scatter. Potencies beside an inconclusive call are fits to weak or partial responses and may not hold up.
Test: Cytotoxic Profiling in HEK 293 Cell Line of Diverse Libraries Using Quantitative High-Throughput Screening; also: nearly all actives have a fitted effect of over 60% in size
Details: HEK 293 viability, ATP luminescence (CellTiter-Glo), 48-72 h; activity change, negative = cytotoxicity: at 115 µM (top of the series) unless noted; series mostly up to 115 µM
In short: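 Viability of HEK 293 cells, plated at 250 cells/well, was judged by cellular ATP after compound treatment for 48 or 72 hr. Luminescence was imaged 10 min after CellTiter-Glo addition at room temperature.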
% is scaled to controls: 0 for no effect and ±100 for the full control effect; potency is read from the fitted curve at half-maximal effect; tags tell the direction and shape of the fitted curve.

Structure (SMILES)	Potency	activity change, negative = cytotoxicity	outcome
Oc1cccc(-c2cc(-c3ccncc3)c3cncn3c2)c1	inconclusive: 35.5 µM [inhibitor, partial curve, poor fit]		
CN1CCc2c([nH]c3ccccc23)C12CCN(C(=O)c1cccn1C)CC2	inconclusive: 89.1 µM [inhibitor, single point]		
CCn1ncc(N2CCCC(CC(=O)NCc3cccc(Cl)c3)C2)cc1=O (centres undefined)	inconclusive: 70.8 µM [inhibitor, single point]		
COc1ccc(C(=O)NCCn2ccn3nc(-c4cc(C)ccc4C)cc3c2=O)cc1OC	inconclusive: 39.8 µM [inhibitor, partial curve]		
CCN1CC2(CCN(C(=O)COC(C)C)CC2)CC(c2ccccc2)C1=O (centres undefined)		inactive: 0.51%	
C#CCN(Cc1nc(-c2ccc(OC)c(C)c2OC)oc1C)C1CCCCC1	inconclusive: 44.7 µM [inhibitor, partial curve, poor fit]		
CCC(C)NC(=O)c1ccc(-c2ccc(OC)nn2)cc1 (centres undefined)	inconclusive: 63.1 µM [inhibitor, full curve, poor fit]		
COc1ccc(-c2ccc(C(=O)N3CCN(C(=O)c4ccc(Cl)cc4)CC3)cc2)nn1	inconclusive: 79.4 µM [inhibitor, partial curve, poor fit]		
COc1ccc(CN2CCC[C@H]2c2nc(-c3ccc(N(C)C)nc3)no2)c(O)c1		inactive: -5.35% [at 172 µM]	
C[S+](=O)([O-])c1cccc(NC(=O)c2cnc3n2CCN(CCc2ccccc2)CC3)c1	inconclusive: 79.4 µM [inhibitor, partial curve, poor fit]		
O=C1CC2(CCN(CC3CCCCC3)CC2)Oc2ccccc2N1c1ccccc1	inconclusive: 50.1 µM [inhibitor, partial curve, poor fit]		
COc1ccc(C(=O)N[C@@H]2CN(C3CCOCC3)C[C@H]2CN(C)C)c(C)c1	inconclusive: 89.1 µM [inhibitor, single point]		
Cc1nn(-c2ccccc2)c2c1C(C1CC1)N(C1CCCN([S+](=O)([O-])c3cccs3)C1)C2=O (centres undefined)		inactive: -1.26%	
Cc1nn(-c2ccc(F)cc2)c(C)c1[C@@H]1C=C[C@@H](NC(=O)NC(C)C)C1	inconclusive: 70.8 µM [inhibitor, partial curve]		
COc1ccc(-c2nc(C)nc3c2CN(C(=O)c2ccccc2Cl)CC3)cc1		inactive: -0.948%	
O=c1n(Cc2ccc3ccccc3n2)nc(C2CCNCC2)n1Cc1ccccc1		inactive: -8.47%	
COc1ccccc1Oc1c(CCC(=O)NCC2CCCO2)c(C)nn1-c1ccc(F)cc1 (centres undefined)	inconclusive: 79.4 µM [inhibitor, partial curve, poor fit]		
O=C(CCC1CCCN(Cc2ccc(-c3ccccc3)cc2)C1)N1CCOCC1 (centres undefined)	inconclusive: 31.6 µM [inhibitor, partial curve, poor fit]		
COCC(=O)N[C@H]1C[C@@H](CO)N(Cc2ccc(Br)o2)C1		inactive: 2.15%	
COc1ccc(-c2ccc3ncc(Nc4ccnc(N5CCOCC5)c4)n3n2)cc1OC	inconclusive: 89.1 µM [inhibitor, partial curve, poor fit]		
COc1ccc(-c2noc([C@@H]3C[C@H](NC(=O)c4ccc(F)cc4)CN3C)n2)cc1	inconclusive: 100 µM [inhibitor, partial curve, poor fit]		
CC(=O)Nc1ccc(NC(=O)c2cc3n(n2)CC(c2ccc(Cl)cc2)OC3)cc1 (centres undefined)	inconclusive: 44.7 µM [inhibitor, partial curve]		

Structure (SMILES)	Potency	activity change, negative = cytotoxicity	outcome
CCN(CC)Cc1nc(C2(O)CCN(Cc3ccccc3)CC2)cs1	inconclusive: 100 µM [inhibitor, partial curve]		
COCCCNC(=O)CCCN1C(=O)COc2ccc(C(=O)COc3cccc(C)c3C)cc21	inconclusive: 10 µM [inhibitor, full curve, poor fit]		
Cc1ccc(-c2cc3c(=O)n(CCNC(=O)c4ccc5ccccc5n4)ccn3n2)c(C)c1	inconclusive: 39.8 µM [inhibitor, full curve, poor fit]		
COc1ccc(C2=NOC3(CCCN(C(=O)C4CCCCC4)C3)C2)cc1 (centres undefined)	inconclusive: 89.1 µM [inhibitor, partial curve, poor fit]		
CCOC(=O)C1CCCN(C(=O)C2CC(c3ccc(CC)cc3)CN(C(=O)c3ccoc3)C2)C1 (centres undefined)	active: 44.7 µM		
O=C(c1ccc2c(c1)OCO2)N1CCC2(C1)C(=O)Nc1ccccc12 (centres undefined)			inactive
Cc1sc2ccn(CC(C)C)c(=O)c2c1C(=O)N1CCCCC1	active: 28.2 µM		
O=C1NCc2ccccc2CC12CCN(Cc1cnc3ccccc3c1)CC2	inconclusive: 79.4 µM [inhibitor, partial curve, poor fit]		
COc1ccc(NC(=O)Cn2ccn3nc(-c4ccc(F)cc4)c(CO)c3c2=O)cc1OC	inconclusive: 89.1 µM [inhibitor, single point]		
CCc1nc(-c2ccc(OC3CCN(C(=O)c4sc(C)nc4C)C3)cc2)no1 (centres undefined)	active: 44.7 µM		
Cc1ccsc1CN1C[C@@H](NC(=O)c2cccnc2)C[C@H]1CO	inconclusive: 100 µM [inhibitor, single point]		
O=C(c1cc(-c2ccsc2)c2nncn2n1)N1CCN(Cc2ccccc2)CC1	inconclusive: 50.1 µM [inhibitor, partial curve, poor fit]		
Cc1nn(-c2ccccc2)c2c1C(C1CC1)N(C1CCN(C(=O)c3ccc(Cl)cc3)C1)C2=O (centres undefined)	inconclusive: 22.4 µM [inhibitor, full curve, poor fit]		
O=C(c1ccccc1Cl)N1CCN(C(=O)c2nc3cccnc3n(CCc3ccccc3)c2=O)CC1	inconclusive: 89.1 µM [inhibitor, single point]		
CN(c1ccccc1)c1cc(=O)c2ccnc(-c3cccnc3)c2o1		inactive: -27.9% [at 172 µM]	
O=C1[C@@H]2C[C@@H](CN2Cc2ccc3c(c2)OCO3)Oc2ccccc2N1CC1CC1	inconclusive: 100 µM [inhibitor, partial curve, poor fit]		
COc1ccc(-c2ccc3nc(-c4cccc(C)c4C)oc3c2)c(OC)c1OC	inconclusive: 56.2 µM [inhibitor, partial curve, poor fit]		
COc1ccc(-n2nc(C)c([C@@H]3C=C[C@@H](NC(=O)Nc4cccc(C#N)c4)C3)c2C)cc1	active: 89.1 µM		
CCCCn1c(=O)c(C(=O)NCCc2ccccc2F)nc2cccnc21		inactive: -7.18%	
CC(=O)N1CCC2(CC1)CN(Cc1ccncc1)Cc1ccccc1O2		inactive: -13.3%	
Cn1c(CNC(=O)c2ccc3nccn3c2)nc2cc(C(F)(F)F)ccc21	inconclusive: 22.4 µM [inhibitor, full curve, poor fit]		
CN(Cc1ccccc1)Cc1cn([C@H]2CO[C@H]3[C@@H]2OC[C@@H]3NC(=O)Nc2ccc(Oc3ccccc3)cc2)nn1		inactive: -27.8%	

Structure (SMILES)	Potency	activity change, negative = cytotoxicity	outcome
CCc1cccc2c(C(CC(=O)N3CCCC3)c3cccc([N+](=O)[O-])c3)c[nH]c12 (centres undefined)	inconclusive: 17.8 µM [inhibitor, partial curve, poor fit]		
O=S(=O)(NC[C@H]1Cn2ccnc2CO1)c1ccccc1		inactive: 2.81% [at 172 µM]	
CCOc1ccc(NC(=O)Cn2ccn3nc(-c4ccc(F)cc4)c(CO)c3c2=O)cc1	inconclusive: 89.1 µM [inhibitor, single point]		
COCCn1c(C)cnc1CC1CCCN(Cc2ccc(C#N)cc2)C1 (centres undefined)	inconclusive: 89.1 µM [inhibitor, single point]		
COc1ccc(S(=O)(=O)N2CCCC(Cn3c(C4CC4)nc4cccnc43)C2)cc1 (centres undefined)	inconclusive: 79.4 µM [inhibitor, partial curve, poor fit]		
O=C(NCc1ccc(Cl)nc1)c1cn2c(n1)CN(C(=O)c1cccnc1)CC2			inactive
COc1ccc(-c2noc([C@@H]3CCCN3C(=O)c3ccccc3Cl)n2)cc1	inconclusive: 50.1 µM [inhibitor, partial curve, poor fit]		
CC(=O)N1CCN(C(=O)C2(Cn3cccn3)CC2)CC(O)C1 (centres undefined)		inactive: -1.42%	
COc1ccccc1-c1cc(C(=O)NC2CCCC2)c2cnn(C)c2n1	inconclusive: 56.2 µM [inhibitor, partial curve, poor fit]		
COCC(=O)N1CCc2cn(CC(C)C)c3cccc(c23)C1	active: 79.4 µM		
COC[C@@H]1[C@@H](NC(=O)c2cnc(C)nc2-c2ccccc2)[C@@H]2CCO[C@H]12		inactive: 4.33%	
COc1cc(C)ccc1OCC(=O)c1ccc2c(c1)N(CC(=O)NCc1ccco1)C(=O)CO2	inconclusive: 89.1 µM [inhibitor, single point]		
CC(C)c1nc2c(NC(=O)Nc3cccc(Cl)c3)cccn2n1	inconclusive: 28.2 µM [inhibitor, full curve, poor fit]		
COCCOCc1nc(C2CCCCN2C(=O)Nc2cccc(C(F)(F)F)c2)no1 (centres undefined)	inconclusive: 89.1 µM [inhibitor, single point]		
CC(C)CNC(=O)N1CC(Oc2ccc(-c3nc(-c4ccccc4)no3)cc2)C1	inconclusive: 3.98 µM [inhibitor, full curve, poor fit]		
Cc1cc(C(=O)N[C@H]2CCOC[C@H]2C2CCOCC2)ccc1N1CCOCC1	inconclusive: 39.8 µM [inhibitor, single point]		
Cc1ccc2nc([C@H]3CCN(Cc4ccc(S(C)(=O)=O)cc4)C3)[nH]c2c1	active: 79.4 µM		
O=C([C@H]1C[C@H](Oc2ccccc2)CN1C(=O)c1cc(F)ccc1F)N1CCOCC1		inactive: -1.06%	
O=C(c1nc2sccn2c1Br)N1CCC(n2cc[nH]c2=O)CC1		inactive: -2.82%	
Cc1cccc(-c2noc([C@@H]3Cc4nc[nH]c4CN3C(=O)CCC(=O)O)n2)c1		inactive: 2.48% [at 172 µM]	
